Data as given in the supplement of paper PMC8728848.
Some of the results follow.

Legend:
Assay in all cases: glycan array binding signal (z-score within array); higher = stronger binding
Details in all cases: glycan notation: IUPAC condensed, linker removed
[1] = target: Neu5Ac(a2-6)Gal(b1-4)GlcNAc(b1-3)Gal(b1-4)GlcNAc(b1-3)Gal(b1-4)GlcNAc
In short: (§1)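 The binding signal is a Z-score computed within each array and averaged over linkers. Arrays of the same protein sequence at different concentrations or buffers were also averaged together. Data originate from 3228 arrays in the Consortium for Functional Glycomics database, kept only where the protein sequence was available.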

[2] = target: Neu5Ac(a2-6)Gal(b1-4)GlcNAc(b1-3)Gal(b1-4)GlcNAc(b1-3)Gal(b1-4)GlcNAc(b1-2)Man(a1-3)[Neu5Ac(a2-6)Gal(b1-4)GlcNAc(b1-3)Gal(b1-4)GlcNAc(b1-3)Gal(b1-4)GlcNAc(b1-2)Man(a1-6)]GalNAc
In short: as §1

[3] = target: Neu5Ac(a2-6)Gal(b1-4)GlcNAc(b1-3)Gal(b1-4)GlcNAc(b1-3)GalNAc
In short: as §1

[4] = target: Neu5Ac(a2-6)Gal(b1-4)GlcNAc(b1-3)Gal(b1-4)GlcNAc(b1-3)[Neu5Ac(a2-6)Gal(b1-4)GlcNAc(b1-3)Gal(b1-4)GlcNAc(b1-6)]GalNAc
In short: as §1

[5] = target: Neu5Ac(a2-6)Gal(b1-4)GlcNAc(b1-3)Gal(b1-4)GlcNAc(b1-6)[Gal(b1-3)]GalNAc
In short: as §1

[6] = target: Neu5Ac(a2-6)Gal(b1-4)GlcNAc(b1-3)Gal(b1-4)[Fuc(a1-3)]GlcNAc(b1-3)Gal(b1-4)[Fuc(a1-3)]GlcNAc
In short: as §1

[7] = target: Neu5Ac(a2-6)Gal(b1-4)GlcNAc(b1-3)GalNAc
In short: as §1

[8] = target: Neu5Ac(a2-6)Gal(b1-4)GlcNAc(b1-3)[Neu5Ac(a2-6)Gal(b1-4)GlcNAc(b1-6)]GalNAc
In short: as §1

[9] = target: Neu5Ac(a2-6)Gal(b1-4)GlcNAc(b1-6)GalNAc
In short: as §1

[10] = target: Neu5Ac(a2-6)Gal(b1-4)GlcNAc(b1-6)[Gal(b1-3)GlcNAc(b1-3)]Gal(b1-4)Glc
In short: as §1

[11] = target: Neu5Ac(a2-6)Gal(b1-4)GlcNAc(b1-6)[Gal(b1-3)]GalNAc
In short: as §1

[12] = target: Neu5Ac(a2-6)Gal(b1-4)GlcNAc6S
In short: as §1

Neu5Ac(a2-6)GalNAc = target: Neu5Ac(a2-6)GalNAc
In short: as §1

[13] = target: Neu5Ac(a2-6)GalNAc(b1-4)GlcNAc
In short: as §1

[14] = target: Neu5Ac(a2-6)GalNAc(b1-4)GlcNAc6S
In short: as §1

[15] = target: Neu5Ac(a2-6)GlcNAc(b1-4)GlcNAc
In short: as §1

[16] = target: Neu5Ac(a2-6)GlcNAc(b1-4)GlcNAc(b1-4)GlcNAc
In short: as §1

Neu5Ac(a2-8)Neu5Ac = target: Neu5Ac(a2-8)Neu5Ac
In short: as §1

[17] = target: Neu5Ac(a2-8)Neu5Ac(a2-3)Gal(b1-3)GalNAc(b1-4)[Neu5Ac(a2-3)]Gal(b1-4)Glc
In short: as §1

[18] = target: Neu5Ac(a2-8)Neu5Ac(a2-3)Gal(b1-3)GalNAc(b1-4)[Neu5Ac(a2-8)Neu5Ac(a2-3)]Gal(b1-4)Glc
In short: as §1

[19] = target: Neu5Ac(a2-8)Neu5Ac(a2-3)Gal(b1-4)Glc
In short: as §1

[20] = target: Neu5Ac(a2-8)Neu5Ac(a2-3)Gal(b1-4)GlcNAc
In short: as §1

[21] = target: Neu5Ac(a2-8)Neu5Ac(a2-3)[Gal(b1-3)GalNAc(b1-4)]Gal(b1-4)Glc
In short: as §1

[22] = target: Neu5Ac(a2-8)Neu5Ac(a2-3)[GalNAc(b1-4)]Gal(b1-4)Glc
In short: as §1

[23] = target: Neu5Ac(a2-8)Neu5Ac(a2-8)Neu5Ac
In short: as §1

[24] = target: Neu5Ac(a2-8)Neu5Ac(a2-8)Neu5Ac(a2-3)Gal(b1-4)Glc
In short: as §1

[25] = target: Neu5Ac(a2-8)Neu5Ac(a2-8)Neu5Ac(a2-3)[Gal(b1-3)GalNAc(b1-4)]Gal(b1-4)Glc
In short: as §1

[26] = target: Neu5Ac(a2-8)Neu5Ac(a2-8)Neu5Ac(a2-3)[GalNAc(b1-4)]Gal(b1-4)Glc
In short: as §1

[27] = target: Neu5Ac(a2-8)Neu5Ac(a2-8)Neu5Ac(a2-8)Neu5Ac(a2-3)[GalNAc(b1-4)]Gal(b1-4)Glc
In short: as §1

[28] = target: Neu5Ac(a2-8)Neu5Gc(a2-3)Gal(b1-4)GlcNAc
In short: as §1

[29] = target: Neu5Ac(b2-6)Gal(b1-4)GlcNAc
In short: as §1

Neu5Ac(b2-6)GalNAc = target: Neu5Ac(b2-6)GalNAc
In short: as §1

[30] = target: Neu5Ac9Ac(a2-3)Gal(b1-3)GlcNAc
In short: as §1

[31] = target: Neu5Ac9Ac(a2-3)Gal(b1-4)GlcNAc
In short: as §1

[32] = target: Neu5Ac9Ac(a2-6)Gal(b1-4)GlcNAc
In short: as §1

[33] = target: Neu5Gc(a2-3)Gal(b1-3)GlcNAc
In short: as §1

[34] = target: Neu5Gc(a2-3)Gal(b1-3)[Fuc(a1-4)]GlcNAc
In short: as §1

Neu5Gc(a2-3)Gal(b1-4)Glc = target: Neu5Gc(a2-3)Gal(b1-4)Glc
In short: as §1

[35] = target: Neu5Gc(a2-3)Gal(b1-4)GlcNAc
In short: as §1

[36] = target: Neu5Gc(a2-3)Gal(b1-4)GlcNAc(b1-3)Gal(b1-4)GlcNAc(b1-2)Man(a1-3)[Neu5Gc(a2-3)Gal(b1-4)GlcNAc(b1-3)Gal(b1-4)GlcNAc(b1-2)Man(a1-6)]Man(b1-4)GlcNAc(b1-4)GlcNAc
In short: as §1

[37] = target: Neu5Gc(a2-3)Gal(b1-4)[Fuc(a1-3)]GlcNAc
In short: as §1

[38] = target: Neu5Gc(a2-6)Gal(b1-4)GlcNAc
In short: as §1

Neu5Gc(a2-6)GalNAc = target: Neu5Gc(a2-6)GalNAc
In short: as §1

[39] = target: Neu5Gc(a2-8)Neu5Ac(a2-3)Gal(b1-4)GlcNAc
In short: as §1

[40] = target: Neu5Gc(a2-8)Neu5Gc(a2-3)Gal(b1-4)GlcNAc
In short: as §1

B1: Gal 3C (Homo sapiens), P17931 (protein)
chain: YGAPAGPLIVPYNLPLPGGVVPRMLITILGTVKPNANRIALDFQRGNDVAFHFNPRFNENNRRVIVCNTKLDNNWGREERQSVFPFESGKPFKIQVLVEPDHFKVAVNDAHLLQYNHRVKKLNEISKLGISGDIDLTSASYTMI
[1]
  glycan array binding signal (z-score): 0.648
[2]
  glycan array binding signal (z-score): 0.38
[3]
  glycan array binding signal (z-score): -0.192
[4]
  glycan array binding signal (z-score): 0.309
[5]
  glycan array binding signal (z-score): -0.114
[6]
  glycan array binding signal (z-score): -0.288
[7]
  glycan array binding signal (z-score): -0.275
[8]
  glycan array binding signal (z-score): -0.353
[9]
  glycan array binding signal (z-score): -0.291
[10]
  glycan array binding signal (z-score): -0.354
[11]
  glycan array binding signal (z-score): -0.317
[12]
  glycan array binding signal (z-score): -0.32
Neu5Ac(a2-6)GalNAc
  glycan array binding signal (z-score): -0.284
[13]
  glycan array binding signal (z-score): -0.355
[14]
  glycan array binding signal (z-score): -0.248
[15]
  glycan array binding signal (z-score): -0.354
[16]
  glycan array binding signal (z-score): -0.319
Neu5Ac(a2-8)Neu5Ac
  glycan array binding signal (z-score): -0.25
[17]
  glycan array binding signal (z-score): -0.329
[18]
  glycan array binding signal (z-score): -0.226
[19]
  glycan array binding signal (z-score): -0.35
[20]
  glycan array binding signal (z-score): -0.266
[21]
  glycan array binding signal (z-score): -0.3
[22]
  glycan array binding signal (z-score): -0.291
[23]
  glycan array binding signal (z-score): -0.323
[24]
  glycan array binding signal (z-score): -0.331
[25]
  glycan array binding signal (z-score): -0.326
[26]
  glycan array binding signal (z-score): -0.185
[27]
  glycan array binding signal (z-score): -0.318
[28]
  glycan array binding signal (z-score): -0.342
[29]
  glycan array binding signal (z-score): -0.332
Neu5Ac(b2-6)GalNAc
  glycan array binding signal (z-score): -0.354
[30]
  glycan array binding signal (z-score): -0.309
[31]
  glycan array binding signal (z-score): -0.019
[32]
  glycan array binding signal (z-score): -0.257
[33]
  glycan array binding signal (z-score): -0.304
[34]
  glycan array binding signal (z-score): -0.213
Neu5Gc(a2-3)Gal(b1-4)Glc
  glycan array binding signal (z-score): -0.25
[35]
  glycan array binding signal (z-score): -0.242
[36]
  glycan array binding signal (z-score): -0.152
[37]
  glycan array binding signal (z-score): -0.278
[38]
  glycan array binding signal (z-score): -0.31
Neu5Gc(a2-6)GalNAc
  glycan array binding signal (z-score): -0.335
[39]
  glycan array binding signal (z-score): -0.295
[40]
  glycan array binding signal (z-score): -0.336
